{
  "source": "patent US20220213030A1",
  "about": "“AMINOGUANIDINE HYDRAZONES AS RETROMER STABILIZERS USEFUL FOR TREATING NEUROLOGICAL DISEASES” (OSPEDALE SAN RAFFAELE SRL, priority 2019, published 2022)",
  "key": {"[1]": {"assay": "Tolerability in mice injected with compound 2a (adverse events, body weight)", "format": "in vivo"}, "Neuro2a cells": {"system": "Neuro2a cells", "assay": "Cytotoxicity of compound 2a in Neuro2a cells (cell survival, CCK8)", "format": "cell-based, mouse", "procedure": "(§1) Cell survival experiments were run on 96-well plates using Cell Counting Kit-8 (CCK8) survival kit (96992-Sigma) according the manufacturer's recommendations. Compound 2a cytotoxicity was tested on Neuro2a cells receiving increasing amount of compound 2a (1, 10, 50, 100, 200, 500 and 1000 μM) for 48 hours."}, "[2]": {"system": "Neuro2a cells receiving H2O2", "assay": "H2O2-induced cell death in Neuro2a cells", "format": "cell-based, mouse", "conditions": "compound 10 μM, H2O2 200 μM, 48 hours", "procedure": "We tested the specificity of compound 2a in an assay based on H2O2-induced chromosomal breaks that lead to DNA fragmentation and cell death. In principle such DNA lesions are the cause of cell death according to a process that is not influenced by the retromer. Thus, our leads should not be able to modulate rates cell survival in Neuro2a cells receiving H2O2. We incubated Neuro2a cells with 200 μM of H2O2 along with compounds 2a, 2c, 2d and 2g (10 μM).\nas §1"}, "G93A mice": {"system": "G93A mice", "assay": "Rotarod motor function in G93A mice", "format": "in vivo, mouse", "procedure": "Having established that compound 2a crosses the BBB we started to treat mice carrying the G93A mutant form of the SOD1. Starting from day 30, G93A mice and their WT litters were daily injected with compound 2a (10 mg/kg) or vehicle. […] Indeed, starting from day 80 the latency to fall progressively diminished in vehicle-treated G93A. Indeed we recorded a 30% reduction of this parameter at day 100 when compared to values recorded at day 50 (FIG. 8C).\nSOD1 mutations increase the propensity of this protein to aggregate in cells (Johnston 2000). We checked whether compound 2a could reduce the accumulation of G93A aggregates in vivo. Starting at post-natal day 83, we injected G93A mice and WT littermates daily with compound 2a (10 mg/kg). We scored motor performances in both vehicle- and compound 2a-treated G93A mice until day 103. […] At day 103, we resolved SC protein extracts by blue-native polyacrylamide gel electrophoresis, and probing these gels with anti-SOD1 antibodies we observed high molecular weight smears in G93A mice that were completely absent in WT litters. […]\nMotor activity of G93A mice was assessed by rotarod. […] For each session five mice were placed on an accelerating rotor (4-40 rpm) and the latency to fall was recorded, with a maximum limit for individual animal set at 900 s."}, "VPS35": {"target": "VPS35 (Mus musculus, UniProt Q9EQH3+Q9QZ88)", "assay": "VPS35 MFI in NeuN+ MNs of G93A mice", "format": "in vivo", "parameters": "endogenous in cells; host or cells: Neuro2a", "conditions": "10 mg/kg, day 100, versus vehicle-treated G93A", "source_text": "We next assayed retromer proteins labelling sections of mice sacrificed at day 100 for VPS35 and NeuN. […] Similarly, we observed that VPS26 levels were increased in G93A mice receiving compound 2a (FIG. 11B). We further corroborated our experimental finding observing that compound 2a increased retromer functionality. The cation-independent mannose 6-phosphate receptor (CI-MPR) is a cargo (Arighi et al., 2004) of the retromer complex that is unstable in VPS26 knockout cells (Seaman 2004). We observed a substantial reduction of CI-MPR MFI levels in MNs of vehicle-treated G93A mice when compared with WT litters (FIG. 11C). […]\nFluorescence intensity levels of VPS35, VPS26, Sortilin, CTSD and Ubiquitin were calculated using NHI-Image J software (US National Institutes of Health) according to the following protocol: stacks of confocal images were used to generate the maximal projections (Las-X) and then post-processed by NHI-Image J to crop single NeuN^+ MNs from the ventral horn of the spinal cord. We next performed background (calculated on adjacent slices only receiving secondary antibodies) subtraction for each channel, before applying the NHI-Image J mean filter (with radius 2.0 pixels) to calculate mean NeuN fluorescence levels in individual MN. […] On this selected ROI, we calculated mean fluoresce levels (MFI) of each protein."}},
  "note": "Several values for one entry are separate records, joined by “and”; a condition that tells them apart may be missing. Equal entries are not always repeated. Where two headings read alike, the source gives them in different places.",
  "data": [
    {"smiles": "N=C(N)NN=Cc1cccc(C=NNC(=N)N)c1", "note": "[Compound 2a, 1,3-Bis-amino guanidine phenyl hydrazone]", "values": [
      {"measurement": "body weight", "setting": "[1]; 10 mg/kg daily from day 30, versus vehicle", "value": "small drop of the body weight when compared with mice receiving the vehicle treatment, although such reduction did not reach statistical significance"},
      {"measurement": "cell toxicity and adverse events", "setting": "[1]; all experiments, mice injected with compound 2a", "value": "did not observe cell toxicity in Neuro2a as well as any adverse events in mice"},
      {"measurement": "toxic effects in cells (cell survival)", "setting": "Neuro2a cells; 10 μM, untransfected Neuro2a", "value": "did not elicit toxic effects in cells"},
      {"measurement": "LD50", "setting": "Neuro2a cells; Neuro2a, increasing amount of 2a for 48 hours, non-linear fitting of cell survival", "value": "~260 µM and 257.9 µM"},
      {"measurement": "cell survival with H2O2 with or without compound", "setting": "[2]", "value": "did not result in any significant difference"},
      {"measurement": "neuronal firing (spikes)", "setting": "primary cortical neurons; highest concentration of 2a (100 μM)", "value": "slight, but not significant, reduction of spikes"},
      {"measurement": "neuronal firing (spikes)", "setting": "primary cortical neurons; low concentrations of compound 2a", "value": "did not alter neuronal firing"},
      {"measurement": "locomotion performances (latency to fall, accelerating rotarod)", "setting": "G93A mice; 10 mg/kg daily from day 30", "value": "substantial amelioration of the locomotion performances"},
      {"measurement": "motor performances (latency to fall)", "setting": "G93A mice; 10 mg/kg daily from day 83 to day 103", "value": "general attenuation of motor deficits"},
      {"measurement": "fluorescent intensity levels of VPS35 (MFI)", "setting": "VPS35", "value": "significantly increased"}
    ]}
  ]
}
